In the antibiotic and cytotoxicity screens of Wong et al. (2023):
Some of the results follow.

Key:
HSkMC = human skeletal muscle cells; assay: cytotoxicity call (relative viability < 0.9); conditions: 10 µM
HepG2 = assay: cytotoxicity call (relative viability < 0.9); conditions: 10 µM
S. aureus RN4220 = assay: growth inhibition call (relative growth <= 0.2); conditions: 50 µM

SMILES | cytotoxicity call (HSkMC) | cytotoxicity call (HepG2) | growth inhibition call (S. aureus RN4220)
COc1ccc(S(=O)(=O)N(C)C[C@@H]2Oc3ccc(N(C)C)cc3C(=O)N([C@H](C)CO)C[C@@H]2C)cc1 | inactive | inactive | inactive
C[C@@H]1CN([C@@H](C)CO)C(=O)c2cc(NC(=O)Nc3cccc4ccccc34)ccc2O[C@@H](C)CCCCO[C@H]1CN(C)Cc1ccncc1 | inactive | inactive | inactive
CN1C(=O)c2cc(NC(=O)C3CCC3)ccc2OC[C@@H]2O[C@@H](CC(=O)NCCc3ccncc3)CC[C@H]21 | inactive | inactive | inactive
CN1CCN(C(=O)C[C@@H]2CC[C@H]3[C@@H](COC[C@H](O)CN3C(=O)Nc3ccc4c(c3)OCO4)O2)CC1 | inactive | inactive | inactive
COc1ccc(S(=O)(=O)N(C)C[C@H]2OCCCC[C@@H](C)Oc3ccc(NC(=O)c4ccccc4)cc3C(=O)N([C@H](C)CO)C[C@@H]2C)cc1 | inactive | inactive | inactive
Cc1ccc(S(=O)(=O)Nc2ccc3c(c2)C(=O)N([C@@H](C)CO)C[C@@H](C)[C@H](CN(C)C(=O)Nc2ccc4c(c2)OCO4)OCCCC[C@@H](C)O3)cc1 | inactive | inactive | inactive
Cc1ccc(S(=O)(=O)N[C@H]2C=C[C@H](CC(=O)NCCN3CCCCC3)O[C@@H]2CO)cc1 | inactive | inactive | inactive
CC(C)NNC(=O)c1ccncc1.O=P(O)(O)O | inactive | inactive | inactive
OC[C@H]1COc2ccccc2O1 | inactive | inactive | inactive
O=C(C[C@H]1CC[C@@H]2[C@H](COC[C@@H](O)CN2C(=O)C2CC2)O1)NCc1ccncc1 | inactive | inactive | inactive
Cc1noc(C)c1NC(=O)Nc1ccc2c(c1)C(=O)N([C@H](C)CO)C[C@@H](C)[C@@H](CN(C)S(=O)(=O)c1ccccc1)OCCCC[C@@H](C)O2 | inactive | inactive | inactive
N[C@]1(C(=O)O)C[C@H](C(=O)O)C1 | inactive | inactive | inactive
COc1ccc(COCC23Oc4ccccc4[C@H]([C@H]2CO[Si](C)(C)C(C)(C)C)n2c(c4ccccc4c(-c4ccccc4)c2=O)N3C)cc1 | active | active | inactive
CNC(=O)c1c(C)noc1C | inactive | inactive | inactive
COC(=O)C1=CO[C@@H](O[C@@H]2O[C@H](CO)[C@@H](O)[C@H](O)[C@H]2O)[C@@H]2[C@@H](CO)C=C[C@H]12 | inactive | inactive | inactive
C[C@@H]1CN([C@@H](C)CO)C(=O)Cc2cc(NC(=O)CCCCCC(=O)Nc3ccccc3N)ccc2O[C@H]1CN(C)Cc1ccc(C(F)(F)F)cc1 | inactive | inactive | inactive
Cc1ccc(S(=O)(=O)Nc2ccc3c(c2)C(=O)N([C@@H](C)CO)C[C@@H](C)[C@H](CN(C)CC2CC2)O3)cc1 | inactive | inactive | inactive
C[C@@H]1CN([C@H](C)CO)C(=O)c2cc(C#CC3(O)CCCC3)cnc2O[C@@H]1CN(C)S(=O)(=O)c1ccccc1 | inactive | inactive | inactive
C[C@@H]1CN([C@@H](C)CO)C(=O)c2cccc(NC(=O)c3ccncc3)c2O[C@H]1CN(C)Cc1ccncc1 | inactive | inactive | inactive
C[C@H](CO)N1C[C@H](C)[C@@H](CN(C)C(=O)c2cccnc2)Oc2ncc(-c3ccc(C(=O)N(C)C)cc3)cc2C1=O | inactive | inactive | inactive
C[C@@H]1CN([C@H](C)CO)C(=O)Cc2cc(NC(=O)CCN3CCOCC3)ccc2O[C@@H]1CN(C)S(=O)(=O)c1ccc(Cl)cc1 | inactive | inactive | inactive
C[C@H]1CN([C@@H](C)CO)C(=O)c2cc(NS(=O)(=O)c3cn(C)cn3)ccc2O[C@@H]1CN(C)C(=O)Nc1ccc(F)cc1 | inactive | inactive | inactive
COc1ccc(S(=O)(=O)Nc2ccc3c(c2)C(=O)N([C@H](C)CO)C[C@@H](C)[C@H](CN(C)S(=O)(=O)c2cccs2)O3)cc1 | inactive | inactive | inactive
C[C@H]1CN([C@@H](C)CO)C(=O)CCCn2cc(nn2)CO[C@@H]1CN(C)C(=O)Nc1ccc2c(c1)OCCO2 | inactive | inactive | inactive
CC(C)C#Cc1ccc2c(c1)O[C@H](CN(C)C(=O)c1cnccn1)[C@@H](C)CN([C@@H](C)CO)S2(=O)=O | inactive | inactive | inactive
C[C@@H]1CN([C@H](C)CO)C(=O)CCCn2cc(nn2)CO[C@H]1CN(C)S(=O)(=O)c1ccc(-c2ccccc2)cc1 | inactive | inactive | inactive
Cc1noc(C)c1S(=O)(=O)N(C)C[C@@H]1Oc2ccc(NC(=O)Cn3cnnn3)cc2CC(=O)N([C@H](C)CO)C[C@H]1C | inactive | inactive | inactive
C[C@@H]1CN([C@@H](C)CO)C(=O)Cc2cc(NC(=O)CCC(F)(F)F)ccc2O[C@H]1CN(C)Cc1ccc(Cl)c(Cl)c1 | active | active | inactive

SMILES | cytotoxicity call (HSkMC) | cytotoxicity call (HepG2) | growth inhibition call (S. aureus RN4220)
N[C@@H](C(=O)N[C@@H]1C(=O)N2C(C(=O)O)=C(Cl)CS[C@H]12)c1ccccc1 | inactive | inactive | active
Cc1ccccc1S(=O)(=O)N1C[C@H](O)COC[C@H]2O[C@@H](CC(=O)N3CCN(C)CC3)CC[C@@H]21 | inactive | inactive | inactive
C[C@H]1CN([C@@H](C)CO)C(=O)c2cccc(NS(=O)(=O)c3ccccc3)c2O[C@H]1CN(C)S(=O)(=O)c1ccc(F)cc1 | inactive | inactive | inactive
C[C@H](CO)N1C[C@H](C)[C@H](CN(C)CC2CC2)Oc2ccc(NS(=O)(=O)c3cccs3)cc2C1=O | inactive | inactive | inactive
C[C@@H]1CCCCO[C@@H](CN(C)C(=O)CCC(F)(F)F)[C@@H](C)CN([C@@H](C)CO)C(=O)c2cc(NC(=O)Nc3ccc4c(c3)OCO4)ccc2O1 | inactive | inactive | inactive
COc1ccccc1NC(=O)N(C)C[C@@H]1Oc2ncc(Br)cc2C(=O)N([C@H](C)CO)C[C@@H]1C | inactive | inactive | inactive
Cc1ccc(S(=O)(=O)N(C)C[C@H]2Oc3ccc(NC(=O)Cn4cnnn4)cc3CC(=O)N([C@@H](C)CO)C[C@@H]2C)cc1 | inactive | inactive | inactive
C[C@H](CO)N1C[C@H](C)[C@@H](CN(C)C(=O)CN(C)C)Oc2ncc(-c3ccc(C(=O)N(C)C)cc3)cc2C1=O | inactive | inactive | inactive
C[C@@H]1CN([C@H](C)CO)C(=O)c2cccc(NC(=O)c3nc4ccccc4s3)c2O[C@H]1CN(C)Cc1ccc(Oc2ccccc2)cc1 | inactive | inactive | inactive
CCN(CC)CCOc1ccc(C(=C(Cl)c2ccccc2)c2ccccc2)cc1.O=C(O)CC(O)(CC(=O)O)C(=O)O | inactive | active | inactive
C[C@@H]1CN([C@@H](C)CO)C(=O)c2cc(C#CCN(C)C)cnc2O[C@@H]1CN(C)C(=O)Nc1ccccc1F | inactive | inactive | inactive
C[C@H]1CN([C@@H](C)CO)C(=O)c2cc(C#Cc3ccccc3F)cnc2O[C@H]1CN(C)C(=O)c1ccc2c(c1)OCO2 | inactive | inactive | inactive
C[C@H]1CN([C@@H](C)CO)C(=O)CCCn2nncc2CO[C@H]1CN(C)C(=O)Nc1ccc(N2CCCCC2)cc1 | inactive | inactive | inactive
C[C@H]1CN([C@@H](C)CO)C(=O)CCCn2nncc2CO[C@@H]1CN(C)S(=O)(=O)c1ccc(-n2cccn2)cc1 | inactive | inactive | inactive
C[C@H](CO)N1C[C@H](C)[C@@H](CN(C)C(=O)c2cc(-c3ccccc3)on2)OCc2cn(nn2)CCCC1=O | inactive | inactive | inactive
Cc1noc(C)c1S(=O)(=O)N(C)C[C@@H]1OCCCC[C@@H](C)Oc2ccc(NS(=O)(=O)c3cn(C)cn3)cc2C(=O)N([C@@H](C)CO)C[C@H]1C | inactive | inactive | inactive
COc1cc([C@@H](O)CO)ccc1OS(=O)(=O)O | inactive | inactive | inactive
O=C(C[C@@H]1CC[C@@H]2[C@H](COC[C@@H](O)CN2Cc2ccccc2F)O1)N[C@H]1CCN(Cc2ccccc2)C1 | inactive | inactive | inactive
CC(=O)OCO/N=[N+](\[O-])N1CCCC1 | inactive | inactive | inactive
COCC(=O)Nc1ccc2c(c1)OC[C@H](C)N(Cc1cccc(F)c1)C[C@H](C)[C@H](OC)CN(C)C2=O | inactive | inactive | inactive
CO[C@H](CN(C)S(=O)(=O)c1cccc(Cl)c1)[C@H](C)CN([C@@H](C)CO)S(=O)(=O)c1cccc(Cl)c1 | inactive | inactive | inactive
Cc1ccc(S(=O)(=O)N(C)C[C@H]2Oc3c(NS(=O)(=O)c4ccc(F)cc4)cccc3C(=O)N([C@H](C)CO)C[C@@H]2C)cc1 | inactive | inactive | inactive
O=C(C[C@@H]1C[C@H]2c3cc(NS(=O)(=O)c4ccc(F)cc4)ccc3O[C@H]2[C@H](CO)O1)NC1CCCC1 | inactive | inactive | inactive
COc1cccc(C#Cc2cnc3c(c2)C(=O)N([C@H](C)CO)C[C@H](C)[C@@H](CN(C)C(=O)C2CCC2)O3)c1 | inactive | inactive | inactive
C[C@@H]1CN([C@H](C)CO)C(=O)c2cc(NC(=O)Nc3ccccc3)ccc2O[C@@H](C)CCCCO[C@H]1CN(C)Cc1ccncc1 | inactive | inactive | inactive
C[C@@H]1CN([C@@H](C)CO)C(=O)c2cc(NC(=O)NC3CCCCC3)ccc2O[C@@H](C)CCCCO[C@@H]1CN(C)Cc1ccc(C(=O)O)cc1 | inactive | inactive | inactive
COc1ccc(S(=O)(=O)N2C[C@@H](O)COC[C@H]3O[C@@H](CC(=O)N[C@H]4CCN(Cc5ccccc5)C4)CC[C@@H]32)cc1 | inactive | inactive | inactive
